According to patent US20230374090A1 (SURROZEN OPERATING, published 2023):
Each block holds one binder with its values, some of them ahead of it.

Tests used:
ASGR1 antigen [1] = biological target: T1, ASGR1 antigen (Homo sapiens (Human), UniProt P07306 62-291, Biotinylated for capture on streptavidin sensors; the site and manner of biotinylation are not stated in the passages seen.); assay: binding to ASGR1 antigen (Octet binding per paragraph 285/paragraph 287; method not printed on the sheet)
T1 construct: also called biotinylated ASGR1
T1 sequence: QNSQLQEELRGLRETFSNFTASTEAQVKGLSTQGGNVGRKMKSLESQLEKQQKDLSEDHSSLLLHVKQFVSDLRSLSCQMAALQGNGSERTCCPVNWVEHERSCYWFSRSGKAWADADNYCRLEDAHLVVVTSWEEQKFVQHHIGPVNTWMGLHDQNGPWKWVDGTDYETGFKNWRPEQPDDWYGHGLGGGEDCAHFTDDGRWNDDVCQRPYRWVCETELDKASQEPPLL

ASGR1 antigen [2] = biological target: T1, ASGR1 antigen; assay: BLI, Octet Red96e, biotinylated ASGR1 on streptavidin sensors, bivalent analyte model; kdis(1/s); Full R^2 0.998
Description: (§1) FIGS. 39A-C show binding of various Wnt signal enhancing molecules comprising the indicated combinations of point mutations as compared to the initial αASGR1-RSPO2 Wnt signaling enhancer molecule (NG or “wild type”). FIG. 39A is a table showing kinetic fir parameters from the data in FIGS. 39B and 39C. Data was fit using the bivalent analyte model in the ForteBIO Data Analysis Software. FIGS. 39B-39C provide data from serial dilutions of the various Wnt signal enhancing molecules tested for binding using biotinylated ASGR1 captured on streptavidin sensors using the Octet Red96e.

ASGR1 antigen [3] = biological target: T1, ASGR1 antigen; assay: BLI, Octet Red96e, biotinylated ASGR1 on streptavidin sensors, bivalent analyte model; Full R^2 0.998
Description: as §1

ASGR1 antigen [4] = biological target: T1, ASGR1 antigen; assay: ASGR1 binding assay, loading sample bio-ASGR1; Full R^2 0.998
ASGR1 antigen [5] = biological target: T1, ASGR1 antigen; assay: ASGR1 binding assay, loading sample bio-ASGR1; kdis(1/s); Full R^2 0.998
ASGR1 antigen [6] = biological target: T1, ASGR1 antigen; assay: ASGR1 binding assay, loading sample bio-ASGR1; kdis(1/s); Full R^2 0.9917
ASGR1 antigen [7] = biological target: T1, ASGR1 antigen; assay: BLI, Octet Red96e, biotinylated ASGR1 on streptavidin sensors, bivalent analyte model; Full R^2 0.9917
Description: as §1

ASGR1 antigen [8] = biological target: T1, ASGR1 antigen; assay: BLI, Octet Red96e, biotinylated ASGR1 on streptavidin sensors, bivalent analyte model; kdis(1/s); Full R^2 0.9917
Description: as §1

ASGR1 antigen [9] = biological target: T1, ASGR1 antigen; assay: ASGR1 binding assay, loading sample bio-ASGR1; Full R^2 0.9917
ASGR1 antigen [10] = biological target: T1, ASGR1 antigen; assay: ASGR1 binding assay, loading sample bio-ASGR1; Full R^2 0.9971
ASGR1 antigen [11] = biological target: T1, ASGR1 antigen; assay: BLI, Octet Red96e, biotinylated ASGR1 on streptavidin sensors, bivalent analyte model; kdis(1/s); Full R^2 0.9971
Description: as §1

ASGR1 antigen [12] = biological target: T1, ASGR1 antigen; assay: ASGR1 binding assay, loading sample bio-ASGR1; kdis(1/s); Full R^2 0.9971
ASGR1 antigen [13] = biological target: T1, ASGR1 antigen; assay: BLI, Octet Red96e, biotinylated ASGR1 on streptavidin sensors, bivalent analyte model; Full R^2 0.9971
Description: as §1

ASGR1 antigen [14] = biological target: T1, ASGR1 antigen; assay: BLI, Octet Red96e, biotinylated ASGR1 on streptavidin sensors, bivalent analyte model; kdis(1/s); Full R^2 0.9983
Description: as §1

ASGR1 antigen [15] = biological target: T1, ASGR1 antigen; assay: ASGR1 binding assay, loading sample bio-ASGR1; kdis(1/s); Full R^2 0.9983
ASGR1 antigen [16] = biological target: T1, ASGR1 antigen; assay: BLI, Octet Red96e, biotinylated ASGR1 on streptavidin sensors, bivalent analyte model; Full R^2 0.9983
Description: as §1

ASGR1 antigen [17] = biological target: T1, ASGR1 antigen; assay: ASGR1 binding assay, loading sample bio-ASGR1; Full R^2 0.9983

Kd (ASGR1 antigen [1]): 26.9 nM
koff (ASGR1 antigen [1]): 0.00399 s⁻¹
kon (ASGR1 antigen [1]): 148000 M⁻¹ s⁻¹
koff (ASGR1 antigen [6]): 0.00725 s⁻¹
Kd (ASGR1 antigen [7]): 46.9 nM
kon (ASGR1 antigen [7]): 155000 M⁻¹ s⁻¹
koff (ASGR1 antigen [8]): 0.00725 s⁻¹
Kd (ASGR1 antigen [9]): 46.9 nM
kon (ASGR1 antigen [9]): 155000 M⁻¹ s⁻¹
B2: 1R34-EEAT/RA (other)
light: SSELTQDPAVSVALGQTVRITCQGESLRSYYASWYQQKPGQAPVLVIYGKANRPSGIPDRFSGSSSGNTASLTITGAQAEDEADYYCTSLERIGYLSYVFGGGTKLTVLGQPKAAPSVTLFPPSSEELQANKATLVCLISDFYPGAVTVAWKADSSPVKAGVETTTPSKQSNNKYAASSYLSLTPEQWKSHRSYSCQVTHEGSTVEKTVAPTECS
heavy: NPICKGCLSCSKDNGCSRCQQKLFFFLRREGMRQYGECLHSCPSGYYGHRAPDMNRCARCRIENCDSCRSKDACTKCKVGFYLHRGRCFDECPDGFAPLEETMECVEGGGGSGGGGSGGGGS[… about 100 residues …][… about 120 residues …][… human IgG1 Fc with changes …]
notes: IgG1 N297G, RSPO2 F105R/F109A

Kd (ASGR1 antigen [10]): 2740 nM
kon (ASGR1 antigen [10]): 338000 M⁻¹ s⁻¹
Kd (ASGR1 antigen [1]): 17.7 nM
koff (ASGR1 antigen [1]): 0.00341 s⁻¹
kon (ASGR1 antigen [1]): 193000 M⁻¹ s⁻¹
koff (ASGR1 antigen [11]): 0.926 s⁻¹
koff (ASGR1 antigen [12]): 0.926 s⁻¹
Kd (ASGR1 antigen [13]): 2740 nM
kon (ASGR1 antigen [13]): 338000 M⁻¹ s⁻¹
B3: 1R34-EEAN/RA (other)
light: SSELTQDPAVSVALGQTVRITCQGESLRSYYASWYQQKPGQAPVLVIYGKANRPSGIPDRFSGSSSGNTASLTITGAQAEDEADYYCNSLERIGYLSYVFGGGTKLTVLGQPKAAPSVTLFPPSSEELQANKATLVCLISDFYPGAVTVAWKADSSPVKAGVETTTPSKQSNNKYAASSYLSLTPEQWKSHRSYSCQVTHEGSTVEKTVAPTECS
heavy: NPICKGCLSCSKDNGCSRCQQKLFFFLRREGMRQYGECLHSCPSGYYGHRAPDMNRCARCRIENCDSCRSKDACTKCKVGFYLHRGRCFDECPDGFAPLEETMECVEGGGGSGGGGSGGGGS[… about 100 residues …][… about 120 residues …][… human IgG1 Fc with changes …]
notes: IgG1 N297G, RSPO2 F105R/F109A

The remaining lines, values behind:

B1: 1R34-EESN/RA (other)
light: SSELTQDPAVSVALGQTVRITCQGESLRSYYASWYQQKPGQAPVLVIYGKSNRPSGIPDRFSGSSSGNTASLTITGAQAEDEADYYCNSLERIGYLSYVFGGGTKLTVLGQPKAAPSVTLFPPSSEELQANKATLVCLISDFYPGAVTVAWKADSSPVKAGVETTTPSKQSNNKYAASSYLSLTPEQWKSHRSYSCQVTHEGSTVEKTVAPTECS
heavy: NPICKGCLSCSKDNGCSRCQQKLFFFLRREGMRQYGECLHSCPSGYYGHRAPDMNRCARCRIENCDSCRSKDACTKCKVGFYLHRGRCFDECPDGFAPLEETMECVEGGGGSGGGGSGGGGS[… about 100 residues …][… about 120 residues …][… human IgG1 Fc with changes …]
notes: IgG1 N297G, RSPO2 F105R/F109A
Kd (ASGR1 antigen [1]): 10.2 nM
koff (ASGR1 antigen [1]): 0.00228 s⁻¹
kon (ASGR1 antigen [1]): 224000 M⁻¹ s⁻¹
koff (ASGR1 antigen [2]): 0.00396 s⁻¹
Kd (ASGR1 antigen [3]): 10.9 nM
kon (ASGR1 antigen [3]): 365000 M⁻¹ s⁻¹
Kd (ASGR1 antigen [4]): 10.9 nM
kon (ASGR1 antigen [4]): 365000 M⁻¹ s⁻¹
koff (ASGR1 antigen [5]): 0.00396 s⁻¹

B4: 1R34-EEST/RA (other)
light: SSELTQDPAVSVALGQTVRITCQGESLRSYYASWYQQKPGQAPVLVIYGKSNRPSGIPDRFSGSSSGNTASLTITGAQAEDEADYYCTSLERIGYLSYVFGGGTKLTVLGQPKAAPSVTLFPPSSEELQANKATLVCLISDFYPGAVTVAWKADSSPVKAGVETTTPSKQSNNKYAASSYLSLTPEQWKSHRSYSCQVTHEGSTVEKTVAPTECS
heavy: NPICKGCLSCSKDNGCSRCQQKLFFFLRREGMRQYGECLHSCPSGYYGHRAPDMNRCARCRIENCDSCRSKDACTKCKVGFYLHRGRCFDECPDGFAPLEETMECVEGGGGSGGGGSGGGGS[… about 100 residues …][… about 120 residues …][… human IgG1 Fc with changes …]
notes: Anti-ASGR1 IgG1 (N297G) with RSPO2 F105R/F109A fused to the N-terminus of each heavy chain; the heavy entry is the whole fusion; also called αASGR1-RSPO2-EEST-RA
Kd (ASGR1 antigen [1]): 18.3 nM
koff (ASGR1 antigen [1]): 0.00319 s⁻¹
kon (ASGR1 antigen [1]): 174000 M⁻¹ s⁻¹
koff (ASGR1 antigen [14]): 0.00384 s⁻¹
koff (ASGR1 antigen [15]): 0.00384 s⁻¹
Kd (ASGR1 antigen [16]): 12.5 nM
kon (ASGR1 antigen [16]): 309000 M⁻¹ s⁻¹
Kd (ASGR1 antigen [17]): 12.5 nM
kon (ASGR1 antigen [17]): 309000 M⁻¹ s⁻¹
